# In all, about 33,000 sequences were measured (“E-score (-0.5 to 0.5)”: median about -0.012, highest 2% from about 0.29 on). This is one part of the list.
# Target: T1, Ybr033w (UniProt P38073)
# T1 sequence: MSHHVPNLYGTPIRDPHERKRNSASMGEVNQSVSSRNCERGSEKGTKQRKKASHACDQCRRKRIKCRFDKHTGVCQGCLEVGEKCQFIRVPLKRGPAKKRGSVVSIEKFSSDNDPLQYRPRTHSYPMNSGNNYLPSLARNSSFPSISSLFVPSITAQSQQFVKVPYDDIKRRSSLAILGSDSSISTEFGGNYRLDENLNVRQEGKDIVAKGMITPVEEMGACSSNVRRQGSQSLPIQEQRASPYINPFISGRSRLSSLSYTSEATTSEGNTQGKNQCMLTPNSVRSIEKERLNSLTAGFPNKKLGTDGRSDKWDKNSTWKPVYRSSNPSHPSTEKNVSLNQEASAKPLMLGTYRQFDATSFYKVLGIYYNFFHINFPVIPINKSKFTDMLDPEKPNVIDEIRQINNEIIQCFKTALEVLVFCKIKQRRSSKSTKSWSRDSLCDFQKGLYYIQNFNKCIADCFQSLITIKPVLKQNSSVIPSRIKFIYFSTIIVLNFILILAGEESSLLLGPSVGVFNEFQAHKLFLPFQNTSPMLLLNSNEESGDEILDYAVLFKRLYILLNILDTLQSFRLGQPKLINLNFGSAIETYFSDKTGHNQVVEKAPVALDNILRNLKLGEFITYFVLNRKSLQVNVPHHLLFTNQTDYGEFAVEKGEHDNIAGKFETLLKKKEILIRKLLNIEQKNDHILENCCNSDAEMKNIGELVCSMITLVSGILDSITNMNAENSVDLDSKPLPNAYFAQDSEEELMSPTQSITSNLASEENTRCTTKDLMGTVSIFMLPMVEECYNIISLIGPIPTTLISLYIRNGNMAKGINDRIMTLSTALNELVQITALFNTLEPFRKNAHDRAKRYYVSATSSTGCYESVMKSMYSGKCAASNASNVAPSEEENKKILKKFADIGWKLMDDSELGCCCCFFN
# Test: PBM E-score (8-mer binding enrichment) (E-score (-0.5 to 0.5)); higher = stronger / more preferred TF binding; most listed sequences are background and not binding sites
# Settings: protein concentration: 200 nM; construct: GST-full length
# How it was run: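 For each ungapped eight-base word taken together with its reverse complement, the Universal PBM Analysis Suite assigned an E-score. Binding data came from GST-tagged yeast transcription factors, applied at about 100-200 nM, on universal all-10-mer Agilent arrays made double-stranded by primer extension. Fluorescent anti-GST marked bound protein, and scans were normalised with masliner.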
row,Sequence,PBM E-score
1,ACAATAAG,0.101
2,GACAAACC,0.00073
3,CAAAAAAC,0.146
4,TACAGAGA,-0.0917
5,CGTTCCAG,0.00365
6,CTTCTTGC,0.0703
7,ACGCCCCA,-0.0884
8,ACACTGGC,-0.159
9,CGCCAGCC,-0.205
10,GGGAAGCA,-0.177
11,CGGCGGAC,-0.152
12,AGTATAGA,0.111
13,CCTTCTAC,-0.306
14,AAGACAAT,0.0281
15,AATGTACG,-0.026
16,ACAGTTCC,0.00752
17,CGCGGCCG,-0.281
18,GTGCTTCA,0.114
19,CCTTGTAG,-0.266
20,ATTCGGAG,0.0644
21,GGGCCCGA,-0.248
22,CATAATGA,0.121
23,ATTGTGCA,0.147
24,CTCTCAAG,0.0738
25,GAAGTCAC,-0.0913

row,Sequence,PBM E-score
1,AGCTCTTC,0.0781
2,CTCCCCCC,-0.316
3,TATTTACA,0.21
4,ATCGACTG,0.0355
5,CAGCAACA,0.235
6,CCGGGCAC,-0.202
7,AGGCACCC,-0.36
8,ATCAATCG,0.206
9,CGATGGTC,-0.118
10,CAAGAGTG,-0.0494
11,AGGTGATA,-0.0022
12,AGCTTAGA,-0.0294
13,CGTCAACA,-0.207
14,AGCTTACT,0.0872
15,TACGAAGA,0.00239
16,ACATATTG,0.193
17,AAGGCAGC,0.00267
18,CCAGAAAG,0.171
19,CACCCGGG,-0.243
20,CCTGTCCG,-0.325
21,CGGGAGCC,-0.293
22,GTGCAAAC,-0.115
23,GGAAGGCC,-0.269
24,CATATGCA,0.0648
25,CCTGCTTC,-0.223

row,Sequence,PBM E-score
1,GTGTAGCA,-0.134
2,ACCCAAAG,-0.0587
3,ATGGTCTG,0
4,CATTCGAA,0.018
5,ATTCGTTG,0.0411
6,GATGTAAC,0.0438
7,GATGGGAC,-0.188
8,AAACGGGC,-0.145
9,TCACTCAA,0.125
10,AAGTATGC,-0.00097
11,ATATTTCG,0.269
12,GCTTACCC,-0.149
13,GCTTAATA,0.0557
14,ATGCCGTC,-0.134
15,AAAGCTCC,-0.214
16,AACACTCC,0.0733
17,CTCCGACC,-0.291
18,AACGGGTG,-0.206
19,CCCCGGCG,-0.337
20,ACCCGCTG,-0.169
21,AGCTAAGC,-0.181
22,CAACTCCG,-0.0556
23,AACGTAGA,0.0243
24,CTCTTGCC,-0.061
25,ATCCGCAA,0.0132

row,Sequence,PBM E-score
1,CTTTTCGC,0.241
2,TCAAAACA,0.298
3,CCTGCCAC,-0.115
4,TCCGACAA,-0.0736
5,CGGGTGAG,-0.164
6,TATAAGAA,0.129
7,ATGCTCTA,-0.12
8,AATTTGTC,0.103
9,CTTATAAG,0.0621
10,GAATGAAA,0.141
11,CGGTGTCA,-0.21
12,ACTAGATG,0.105
13,CCGGTAAG,0.0788
14,TAACGCGA,0.0926
15,GCGCTCTA,-0.159
16,GATCGCGA,-0.0152
17,TGACGAAA,0.182
18,TACGGAGA,0.101
19,CTGTACAA,0.133
20,TATCTAAA,0.103
21,AAAAAGCC,0.126
22,AGATTGTA,0.2
23,ATGGGGAG,-0.00442
24,GGTTTCGA,0.0406
25,CAGGGCAC,-0.0829

row,Sequence,PBM E-score
1,GCAGTACC,0.0191
2,TACACGGA,0.17
3,GCCACAGC,-0.153
4,ATCTGTAG,0.0631
5,AAGCGACG,-0.285
6,AACTCAAA,0.228
7,GTAGGTGA,-0.106
8,CGTAAGCC,0.0973
9,TCAGATGA,0.0933
10,AGTAATAG,0.218
11,AGGGGCCA,-0.189
12,CTCGACTA,-0.142
13,CGATGGCC,-0.119
14,AAAACGTC,0.102
15,CACATCGC,-0.228
16,TATGTACA,0.00907
17,GTCAAAAC,0.025
18,GATAGTAA,0.19
19,AGGCCCGC,-0.196
20,AAAGCCAC,0.0888
21,CCCACTAG,-0.361
22,GTGAGCTA,-0.00306
23,TGCATCAA,0.272
24,GGCGCATA,0.0428
25,ATATAAAG,0.211

row,Sequence,PBM E-score
1,CTCTGAAG,-0.113
2,CATGAGAC,-0.0524
3,ACTGCCTC,-0.0835
4,CAAGACCG,-0.0876
5,AACCGTCT,-0.146
6,TGGCCTAA,-0.088
7,ATCATCCA,0.122
8,TGGCATAA,0.21
9,CGACATAG,-0.0646
10,GGGGCGAC,-0.284
11,TCCTGCAA,-0.00079
12,CGTACGCA,-0.211
13,CTGGAGAC,-0.0559
14,TGACTGCA,-0.239
15,AAAGGACG,-0.0775
16,AAAAATTG,0.221
17,TAGAAGAA,0.0772
18,CGCCATAC,-0.0342
19,CCGAAGTA,0.113
20,AGTTTTAT,0.214
21,CAAATAAC,0.214
22,AATCAACT,0.183
23,ACATCGCC,-0.102
24,CGTTCTTA,0.0158
25,CAATGCCA,0.0533

row,Sequence,PBM E-score
1,AACCATTC,0.166
2,ATGTCCCG,-0.103
3,GGGCCTAC,-0.188
4,CACTGGCG,-0.0439
5,CCTACAAA,-0.181
6,GCACCACC,-0.133
7,CGGTGAGA,0.0625
8,AGACCCGG,-0.0434
9,ACCCGAGA,-0.0852
10,ACTGTGCT,0.0906
11,CAATACAC,-0.00219
12,GACGACAA,0.293
13,AAACGCTA,0.00151
14,GTGTTACA,0.036
15,AGGCGATA,-0.215
16,GCCGTAGC,-0.22
17,CGTCAGAG,-0.124
18,CTATTAAG,0.0575
19,TCACGGAA,0.162
20,AGCCGCCA,-0.371
21,CGGGCTCA,-0.288
22,AAGCATCC,-0.179
23,AGTAAAAT,0.243
24,ATTGGAAA,0.132
25,AACCACAC,0.0524

row,Sequence,PBM E-score
1,TATCAATA,0.257
2,CAATGCAA,0.0602
3,GTACCTTA,0.0785
4,GCCTAACA,0.0251
5,CTGACAGA,0.0639
6,CGGAGACC,-0.102
7,AGGGAGAT,-0.207
8,AAGTGAAC,0.00184
9,CAAATGTG,0.204
10,GTGCTCCA,-0.217
11,ACAAAAGC,0.101
12,ATGATACC,0.0927
13,AACGCTGC,-0.147
14,GCTCGTAA,0.122
15,ACTCGGCA,-0.0783
16,GCCACTAA,0.0425
17,GCACACAA,0.131
18,AAGTGTCA,-0.124
19,AAGTAAAA,0.153
20,AATCCAAG,0.228
21,TACCTATA,0.0923
22,TCCGGACA,-0.00786
23,AAGCCGAA,0.186
24,ACTGACTA,-0.0389
25,GTTTAATA,0.264

row,Sequence,PBM E-score
1,ACCTCTAT,0.0597
2,CGCCGCCA,-0.218
3,CCGTACCC,-0.263
4,AAAACCTA,0.259
5,CCACCTGA,-0.00429
6,ACGGCCTG,-0.189
7,GGAACGCC,-0.311
8,AAAATCAA,0.221
9,AACACCGC,-0.118
10,AGTTCGGA,-0.0376
11,TGTCTTAA,0.0535
12,ATCACTAC,0.0771
13,ATTTGCAA,0.131
14,CAGGCGGA,0.122
15,GTCACTCA,0.103
16,TAAAGAGA,0.114
17,GCAATCTA,0.0545
18,ACTGCGTG,-0.0658
19,TGATAACA,0.176
